Results on 44 sequences are retold here after the supplement of paper PMC11417369.

± gives the standard deviation of the averaged measurements. The list shows a part of the results.

This experiment deals with PfAP2-EXP AP2 domain (GST-tagged). In words: gcPBM binding intensity (ln(normalized median fluorescence intensity)); higher = stronger DNA binding. In outline:
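GST-tagged P. falciparum DNA-binding domains, expressed in E. coli (about 25 μg on average), were applied for 1 h to an Agilent 4 × 180k array of primer-extended double-stranded 36-bp intergenic genomic probes plus negative controls. The binding buffer was 1× PBS with 1% milk, 0.2 mg/ml BSA, 0.5% salmon testes DNA and 0.03% Triton X-100. Bound protein was detected with Alexa488 anti-GST antibody and scanned at 488 nm. Binding intensity is the highest Masliner-normalised natural-log median intensity across replicate spots of either probe orientation.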
As to “TGAGACATGAATGCAAGTACAAAAAGGAGAACAAAA [XGTACX_site6183]”, the “gcPBM binding intensity (ln)” value was 9.14 ± 0.41.
With “AAAAAAAAAAAAAAAAGTACACACTTTTGCCTACAT [XGTACX_site6583]” the figure was 8.74 ± 0.12; with “AAATTATATATAATAAATAATTTCTTTTTCTAAAAG [CACACA_negctrl_site8]”, 7.76 ± 0.45.
For “TTTTATAATTTCAAAGGATTCTTTAATATTATAAAT [CACACA_negctrl_site1812]”, the “gcPBM binding intensity (ln)” value was found to be 7.97 ± 0.53.
With “AATAATTGCTAAAGGTGTACAATACGTATATAAGAA [XGTACX_site4910]” the figure was 9.32 ± 0.44.
For “TTATATTTTTTTTGTAGTACATTATAGAATACACAC [XGTACX_site969]”, the “gcPBM binding intensity (ln)” value came out at 8.68 ± 0.33.
On to “TTAATAACAAAATAAACACACATATATAAATACACA [CACACA_site6849]”, for which the “gcPBM binding intensity (ln)” value came out at 8.75 ± 0.38.
For “TAAATTCTGTTTAAAAGTACAAATAATATTGTGCCT [XGTACX_site7805]” the value was 8.14 ± 0.3; for “TTTATTAAAACAAAATGTACACACATATAATTTAAT [XGTACX_site1637]”, 8.38 ± 0.32; for “AAATGTTGAAATGATACACACATATATATATATATA [CACACA_site2517]”, 10.3 ± 0.32.
With “TGAAAGTGTATTAAAGTGCATATTATTTTATCTACC [GTGCAC_site9969]” the figure was 8.59 ± 0.23; with “TTAATCTTCATAAAATGTACAGAAGATTGAATATTC [XGTACX_site6213]”, 8.46 ± 0.54.
With “ATATTTTTTTTCATTTGTACACATAAAATTATATAG [XGTACX_site8260]” the figure was 8.81 ± 0.36.
As for “AAAATACATATATATATATATAATATTGTTGTTAAA [GTGCAC_negctrl_site519]”, the “gcPBM binding intensity (ln)” value amounted to 8.21 ± 0.39.
With “ATAATATTTTATAATTGTACTTTTTATAAATATAAA [XGTACX_site1940]” the figure was 8.3 ± 0.22; with “CATATTTACATTAAGTGTACTTATGAATATATATAC [XGTACX_site7962]”, 8.42 ± 0.4; with “TAAATAAATCCACATACACACACGACGCTAGTATAT [CACACA_site1060]”, 8.32 ± 0.38.
For “TTTTTATTTTTAGTAGTGCATTAATCATATGGTCAT [GTGCAC_site9879]” the value was 8.69 ± 0.17; for “GATAGATAATATTTTAGTACATAAACAATTAAATAT [XGTACX_site4125]”, 8.53 ± 0.32.
Take “AATATTTTATTTTTTCTCATTAAAAATTTTTTTTTT [CACACA_negctrl_site364]”: the “gcPBM binding intensity (ln)” value was 8.46 ± 0.45.
For “CAAAAGAAGGTAAACACACACACACCCATACAAAAA [CACACA_site3765]” the value was 8.77 ± 0.47.
For “ATTATTCGTTTTAAATGTACTCATATAAACGATAAA [XGTACX_site7866]” the value was 8.52 ± 0.3.
With “TTATGAAAAAAATACTGTACACAATATGACGAAAGT [XGTACX_site2283]” the figure was 9.07 ± 0.39.
For the sequence “TTTTAAATAAATCATGCATGCACATATAATTATATT [TGCATGCA_site151]”, the “gcPBM binding intensity (ln)” value was 9.94 ± 0.33.
For “TATACGCATATTTTTACACACATATTTTTTCATATA [CACACA_site2546]” the value was 8.83 ± 0.47.
With “TATCTCATTTGGAATTGTACTAACAGATACTTGTTT [XGTACX_site2672]” the figure was 8.4 ± 0.44.
Regarding “ATTCAATAATTGTTTTTTTTCTTTTTGTTTTTGTTT [GTGCAC_negctrl_site563]”, the “gcPBM binding intensity (ln)” value came to 8.44 ± 0.53.
With “TATATATAATATATATGTACATATGTATAATATTTA [XGTACX_site4400]” the figure was 8.29 ± 0.3; with “AATATTACGTCTGGACGTACAAATCTTTTTCGTGTC [XGTACX_site6644]”, 8.42 ± 0.17.
For “AAATTATTGAAATACGCATGTGTTTTTTTTTTTTTT [TGCATGCA_site391]” the value was 8.51 ± 0.18; for “GAAATATTTTGTTGTGCATGCGACATTAAATAAAAA [TGCATGCA_site331]”, 9.45 ± 0.18; for “ATATAAAGGTTTATTAGTACACATTAGAATACTTTT [XGTACX_site4492]”, 8.24 ± 0.26.
Regarding “ACATTTTTTTTTTTTTTTTTTTTCTTACATCATGCA [CACACA_negctrl_site1413]”, the “gcPBM binding intensity (ln)” value is 8.41 ± 0.38.
With “TTTTACTAGATATATACACACATTATACCTATAGAT [CACACA_site7530]” the figure was 8.44 ± 0.45; with “CATATTAGGACAAAGTGTACATATATATATATATAT [XGTACX_site1172]”, 10.3 ± 0.27; with “AATATACACATTGTGAAATAACAAAAAAGGCAAAAA [CACACA_negctrl_site1014]”, 8.97 ± 0.54.
As to “CCTATTTATATATACACACACATATATAAATAAATA [CACACA_site2991]”, the “gcPBM binding intensity (ln)” value was 8.48 ± 0.37.
With “TATATATATGTATGATGTACATATATGCATATATAT [XGTACX_site3399]” the figure was 8.54 ± 0.23; with “TTAATTAAATATTATACACACAAAAAAATAATTTTA [CACACA_site96]”, 8.43 ± 0.48; with “AATAAAAAGATATTCTCCTTGTTCCTTTTTTTTAAA [CACACA_negctrl_site1147]”, 8.59 ± 0.5.
“ATATATATTCATAATACACACATTCTGTAGCATTAT [CACACA_site2067]”: the “gcPBM binding intensity (ln)” value stood at 8.53 ± 0.35.
For the sequence “ATAGTATCTGGTAGCTGTACGAATGGTAGAGAGTAG [XGTACX_site2548]”, the “gcPBM binding intensity (ln)” value was 9.27 ± 0.33.
With “ATATTTTTTTTCTTCACACACATGAATTATATATAA [CACACA_site3216]” the figure was 8.87 ± 0.43; with “ATATATATATTAAAGGTGCACAAATAAATATATACA [GTGCAC_site9532]”, 9.54 ± 0.26.
